Assay results taken from PMC4574636 (Biochemical pharmacology, 2015).

Biological target: T1, human AOX1 A1023Y (Homo sapiens, UniProt Q06278, A1023Y)
T1 sequence (Q06278 1-1338 A1023Y): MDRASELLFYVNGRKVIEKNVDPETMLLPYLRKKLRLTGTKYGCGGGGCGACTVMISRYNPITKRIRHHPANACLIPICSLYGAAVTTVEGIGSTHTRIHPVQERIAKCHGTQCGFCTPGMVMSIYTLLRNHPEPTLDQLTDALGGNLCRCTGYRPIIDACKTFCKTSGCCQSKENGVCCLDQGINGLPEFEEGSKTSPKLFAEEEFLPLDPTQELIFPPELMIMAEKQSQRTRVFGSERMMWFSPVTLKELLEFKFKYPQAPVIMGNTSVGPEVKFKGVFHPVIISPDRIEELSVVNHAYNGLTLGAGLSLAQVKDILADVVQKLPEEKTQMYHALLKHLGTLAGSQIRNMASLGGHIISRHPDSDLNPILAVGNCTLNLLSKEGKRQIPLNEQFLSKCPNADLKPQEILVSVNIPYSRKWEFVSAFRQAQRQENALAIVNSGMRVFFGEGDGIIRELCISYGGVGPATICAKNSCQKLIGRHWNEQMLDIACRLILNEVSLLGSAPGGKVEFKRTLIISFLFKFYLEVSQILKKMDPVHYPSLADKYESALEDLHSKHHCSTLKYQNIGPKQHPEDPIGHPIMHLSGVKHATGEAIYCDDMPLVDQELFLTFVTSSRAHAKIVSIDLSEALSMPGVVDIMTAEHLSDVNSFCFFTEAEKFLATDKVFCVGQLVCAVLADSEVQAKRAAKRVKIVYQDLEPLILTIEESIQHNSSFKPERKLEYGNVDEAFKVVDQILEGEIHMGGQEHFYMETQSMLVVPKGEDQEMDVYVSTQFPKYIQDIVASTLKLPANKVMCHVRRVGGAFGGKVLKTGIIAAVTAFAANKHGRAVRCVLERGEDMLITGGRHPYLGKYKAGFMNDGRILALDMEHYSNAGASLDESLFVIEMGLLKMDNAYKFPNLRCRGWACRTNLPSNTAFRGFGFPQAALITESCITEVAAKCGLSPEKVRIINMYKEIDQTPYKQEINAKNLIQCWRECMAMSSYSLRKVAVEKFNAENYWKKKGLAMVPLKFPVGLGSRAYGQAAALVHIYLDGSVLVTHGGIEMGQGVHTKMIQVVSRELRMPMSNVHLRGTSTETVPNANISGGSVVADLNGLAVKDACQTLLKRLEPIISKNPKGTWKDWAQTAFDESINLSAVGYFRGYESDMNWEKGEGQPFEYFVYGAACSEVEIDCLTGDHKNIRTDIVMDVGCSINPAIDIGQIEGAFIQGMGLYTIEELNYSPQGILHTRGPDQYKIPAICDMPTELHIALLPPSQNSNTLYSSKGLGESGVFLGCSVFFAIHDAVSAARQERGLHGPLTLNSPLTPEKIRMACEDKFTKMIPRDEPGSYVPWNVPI
Assay: Methotrexate hydroxylation by purified recombinant human AOX1 A1023Y mutant
Assay type: in vitro ADME
Conditions: A1023Y single mutant

CN(Cc1cnc2nc(N)nc(N)c2n1)c1ccc(C(=O)N[C@@H](CCC(=O)O)C(=O)O)cc1 [Methotrexate, 4-amino-N^1^0-methylpteroglutamic acid]
Km / affinity vs wild type (Figure 5): decreased affinity for methotrexate compared to wild type AOX1 | Methotrexate hydroxylation activity vs wild type (p < 0.01, Figure 5): significant decrease
